According to PubChem BioAssay AID624417 (National Center for Advancing Translational Sciences (NCATS), 2012):
The campaign covered roughly 410,000 compounds. About 6,400 (1.6%) were called active. Inconclusive results, whose numbers are uncertain, are shown with a selection of clear calls. Calls follow the shape of the dose curve; as a rule, active = well fitted inhibition curve with a large enough effect; inconclusive = small, poorly fitted or top-dose-only effect; inactive = no such curve, though single readings can be large or run the other way. Potencies of inconclusive entries are left out as doubtful fits.

biological target: Glucagon-like peptide 1 receptor (Homo sapiens) (UniProt P43220); experiment: qHTS of GLP-1 Receptor Inverse Agonists (Inhibition Mode); conditions: HEK293 GLP-1R CRE-luciferase, luminescence, 24 h, GLP-1R form is constitutively active; activity change, negative = inhibition: at 38.3 µM (top of the series) unless noted; also: nearly all actives have a fitted effect of over 55% in size
Outline: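 GLP-1R inverse agonism mode: basal reporter luminescence in engineered HEK293 cells measured after one day of compound exposure at 37 deg C, with a 12 min room-temperature detection step.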
% is scaled to controls: 0 for no effect and ±100 for the full control effect; potency is read from the fitted curve at half-maximal effect; tags tell the direction and shape of the fitted curve.

Sequence of UniProt P43220 (P43220 whole entry, looked up): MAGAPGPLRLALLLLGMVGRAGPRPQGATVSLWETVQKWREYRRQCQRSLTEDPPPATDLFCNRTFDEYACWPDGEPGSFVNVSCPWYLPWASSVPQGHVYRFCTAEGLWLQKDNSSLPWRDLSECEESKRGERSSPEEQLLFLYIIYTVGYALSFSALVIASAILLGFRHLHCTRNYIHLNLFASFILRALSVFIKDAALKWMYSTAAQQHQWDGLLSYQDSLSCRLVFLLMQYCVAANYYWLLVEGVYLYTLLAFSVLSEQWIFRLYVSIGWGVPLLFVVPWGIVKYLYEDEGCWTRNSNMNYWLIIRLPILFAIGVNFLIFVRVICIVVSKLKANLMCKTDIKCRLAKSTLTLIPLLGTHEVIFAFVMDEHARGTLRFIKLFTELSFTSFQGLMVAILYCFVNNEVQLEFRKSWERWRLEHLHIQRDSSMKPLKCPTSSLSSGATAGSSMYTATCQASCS

Structure (SMILES) | Potency | activity change, negative = inhibition
Nc1cc(-c2ccc(Br)cc2)nn1Cc1ccccc1 | inconclusive [inhibitor, partial curve] | –
S=C(Nc1cc(Cl)ccc1Oc1ccccc1)N1CCN(c2ccccn2)CC1 | inconclusive [inhibitor, partial curve] | –
COc1ccc(C2c3[nH]c4ccccc4c3CCN2C(=O)c2cc3ncccn3n2)c(F)c1 (stereo not given) | inconclusive [inhibitor, partial curve, poor fit] | –
COc1ccc(NC(=O)c2ccc3[nH]c(C)c(C)c3c2)cc1 | inconclusive [inhibitor, partial curve] | –
O=C(NCC(c1cccnc1)N1CCN(Cc2ccccc2)CC1)C(=O)Nc1cccc(F)c1 (stereo not given) | inactive | –
COc1ccccc1OCC(=O)Nc1cccc(-c2nnc(-c3ccco3)o2)c1 | – | inactive: 13.8% [at 7.66 µM]
COc1ccccc1CC(=O)NC1CCCc2ccccc21 (stereo not given) | inconclusive [inhibitor, partial curve] | –
CC(O)CNCCCOc1ccccc1OCc1ccccc1 (stereo not given) | inconclusive [inhibitor, partial curve, poor fit] | –
CC/C(=N\NC(=O)C1CCCC1)c1cccc(Br)c1 | inconclusive [inhibitor, single point] | –
CC(NC(=O)c1sc2ncccc2c1-n1cccc1)c1ccccc1 (stereo not given) | inconclusive [inhibitor, partial curve, poor fit] | –
COc1cccc(/C=C/c2ccc3cccc(O)c3n2)c1OC | inconclusive [inhibitor, single point] | –
OCC1(Cc2ccccc2)CCN(Cc2ccc(-c3ccco3)cc2)CC1 | inconclusive [inhibitor, partial curve, poor fit] | –
COc1ccc(-c2nn(-c3ccccc3)cc2/C=C2/SC(=S)N(CCCC(=O)O)C2=O)c(C)c1 | inconclusive [inhibitor, single point] | –
COc1ccc2[nH]c(C)cc(=O)c2c1 | inactive | –
O=C1CSC(c2cccc(F)c2)N1c1c(F)cccc1F (stereo not given) | inconclusive [inhibitor, partial curve, poor fit] | –
CC(C)N(Cc1nc(-c2ccc(Cl)cc2)no1)C(=O)CCCN1C(=O)c2ccccc2C1=O | inconclusive [inhibitor, partial curve, poor fit] | –
CCC(C(=O)Nc1ccc2c(c1)OCCO2)c1ccccc1 (stereo not given) | inconclusive [inhibitor, partial curve, poor fit] | –
Cc1cccnc1CCNCc1c(C(=O)N2C[C@@H](C)O[C@@H](C)C2)nc2ccc(Cl)cn12 | inactive | –
COc1cccc(CN(C)CC(=O)Nc2c(C)cccc2C(C)C)c1 | inconclusive [inhibitor, partial curve, poor fit] | –
Cc1nnc(SCC(=O)NCCOc2ccc(Cl)cc2)n1-c1ccccc1 | inconclusive [inhibitor, single point] | –
CCN1CCN(C(=O)c2ccc(-c3nc4ccccc4s3)s2)CC1 | inconclusive [inhibitor, single point] | –
Cc1cc(C)cc(NC(=O)C2COc3ccccc3O2)c1 (stereo not given) | inconclusive [inhibitor, single point] | –

Structure (SMILES) | Potency | activity change, negative = inhibition
C/C(=N\NC(=O)COc1ccc(C)cc1C(C)C)c1ccc(-n2ccnc2)cc1 | inconclusive [inhibitor, single point] | –
COc1cccc(/C=N/NC(=O)c2[nH]nc3c2CCc2ccccc2-3)c1 | inconclusive [inhibitor, full curve] | –
C=CCn1c(NCc2ccc(N(C)C)cc2)nc2ccccc21 | inconclusive [inhibitor, single point] | –
Cc1ccc(-c2nn(-c3ccccc3)cc2C(=O)N2CCOCC2)cc1C | inconclusive [inhibitor, single point] | –
COC(=O)C(NC(=O)c1ccccc1)c1ccccc1 (stereo not given) | inactive | –
COc1ccc(N2CCN(C(c3ccccc3OC)c3nnnn3Cc3ccco3)CC2)cc1 (stereo not given) | inconclusive [inhibitor, partial curve, poor fit] | –
CCC1(c2ccc(F)cc2)NC(=O)N(CC(=O)Nc2ccc(N3CCCCC3)cc2)C1=O (stereo not given) | inconclusive [inhibitor, partial curve] | –
CCOC(=O)/C(O)=C/c1ncc(C(F)(F)F)cc1Cl | inactive | –
COc1ccc(NC(=O)N2CCc3c([nH]c4ccc(OC)cc34)C2c2ccc(OC)cc2)cc1 (stereo not given) | inconclusive [inhibitor, full curve, poor fit] | –
COc1cccc(-c2ccc(NC(=O)C3CCCN(CCCn4nc(C)cc4C)C3)cc2)c1 (stereo not given) | inconclusive [inhibitor, partial curve, poor fit] | –
CCc1cccc(NC(=O)CN2CCCN(Cc3cccc(C)c3)S2(=O)=O)c1 | inconclusive [inhibitor, single point] | –
COc1ccccc1N(Cc1ccccc1)S(=O)(=O)c1cccc(C(=O)O)c1 | inactive | –
CC1CC(C)CN(c2oc(-c3ccco3)nc2C#N)C1 (stereo not given) | inconclusive [inhibitor, partial curve, poor fit] | –
COC(C/C=C/C(=O)[C@H](C)OCc1ccccc1)OC | inactive | –
CN(C)CCNc1ncnc2c1ncn2[C@H]1CN(Cc2ccc(-c3ccccc3)cc2)C[C@@H](CO)O1 | inconclusive [inhibitor, partial curve, poor fit] | –
O=C(CCCn1c(=S)[nH]c2ccccc2c1=O)NCCSCc1ccccc1 | inconclusive [inhibitor, full curve] | –
CN1CCC(OC(=O)c2ccc(Cl)cc2Cl)CC1 | inconclusive [inhibitor, partial curve, poor fit] | –
OC(CSc1c(Cl)cccc1Cl)CN1CCN(c2ccccc2F)CC1 (stereo not given) | inconclusive [inhibitor, single point] | –
COC(=O)CCc1nc2cc(Cl)ccc2n(Cc2ccccc2)c1=O | inconclusive [inhibitor, single point] | –
O=C(Nc1nnc(-c2ccc3c(c2)OCCO3)o1)c1ccc(Cc2ccccc2)cc1 | inactive | –
CCC(C)(C)C1CCc2[nH]nc(C(=O)NC3CCCCC3)c2C1 (stereo not given) | inconclusive [inhibitor, full curve, poor fit] | –
CCOc1ccc(CNC(=O)CCC(=O)N2CCSc3ccccc32)cc1 | inconclusive [inhibitor, single point] | –

Structure (SMILES) | Potency | activity change, negative = inhibition
COc1ccc(Oc2nnc(-c3ccc(C)cc3)c3ccccc23)cc1 | inactive | –
COc1ccc(-c2n[nH]c(=S)n2/N=C/C=C\c2ccccc2OC)cc1 | inactive | –
CSc1cccc(Nc2cc(C(=O)NCCCN(Cc3ccccc3)C(C)C)c3ccccc3n2)c1 | inconclusive [inhibitor, single point] | –
O=C(NCCS(=O)(=O)N1CCN(c2ccc(F)cc2)CC1)c1cc(=O)c2ccccc2o1 | inactive | –
Cc1c(C(=O)OC/C(O)=C(\C#N)c2nc3ccccc3[nH]2)oc2ccccc12 | inconclusive [inhibitor, single point] | –
Cc1ccc(Oc2ncccc2COC(=O)Nc2ccccc2C)cc1 | inconclusive [inhibitor, partial curve, poor fit] | –
COc1ccc(NC(=O)CSCC(=O)Nc2cc(Cl)ccc2N2CCOCC2)cc1 | inconclusive [inhibitor, partial curve, poor fit] | –
Cc1ccc(C)c(NC(=O)C(Cc2ccccc2)N2Cc3ccccc3C2=O)c1 (stereo not given) | inconclusive [inhibitor, single point] | –
CN(Cc1nc(-c2ccc(Cl)cc2)no1)C(=O)c1ccc2c(c1)OCO2 | inconclusive [inhibitor, single point] | –
CCN(CC)S(=O)(=O)c1ccc(C)c(N=C=S)c1 | inconclusive [inhibitor, partial curve, poor fit] | –
CN(CCO)C(=O)c1nc[nH]c1C(=O)N(C)Cc1ccccc1 | inactive | –
CCCCNC(=NCc1cccc(C(F)(F)F)c1)Nc1ccccc1 | inconclusive [inhibitor, full curve, poor fit] | –
O=C(CSc1nc(-c2ccccc2)c(-c2ccccc2)o1)N1CCOCC1 | inactive | –
Cc1ccc(C(=O)Nc2ccc3c(c2)OCCO3)o1 | inconclusive [inhibitor, single point] | –
CCOc1cc(-c2cc(-c3ccc(NC(C)=O)cc3)nc(N)c2C#N)ccc1O | inconclusive [inhibitor, single point] | –
COc1ccc(C(=O)NCCC2=CCCCC2)cc1 | inconclusive [inhibitor, partial curve, poor fit] | –
O=C(CN1CCCCC1)NCCNc1ccc(C(F)(F)F)cc1[N+](=O)[O-] | inconclusive [inhibitor, partial curve, poor fit] | –
O=C(N/N=C/c1ccncc1)c1cc2c(ccc3ccccc32)o1 | inactive | –
Cc1ccc(CC(=O)Nc2ccc(S(=O)(=O)N3CCOCC3)cc2)cc1 | inconclusive [inhibitor, partial curve] | –
CCOCCCNC(=O)c1c[nH]c2ccc(S(=O)(=O)Nc3cccc(Cl)c3C)cc2c1=O | inactive | –
COc1cc(C(=O)c2ccccc2)c(OC)cc1C(=O)Nc1ccc(O)cc1 | inconclusive [inhibitor, partial curve] | –
